In the supplement of paper PMC12217912:
This is one part of the list. Sequences were assembled here from the parent chain. Inactive controls read about 0.05.

B1: TEV protease; numbered along this chain (parent)
chain: MGESLFKGPRDYNPISSSICHLTNESDGHTTSLYGIGFGPFIITNKHLFRRNNGTLVVQSLHGVFKVKDTTTLQQHLVDGRDMIIIRMPKDFPPFPQKLKFREPQREERICLVTTNFQTKSMSSMVSDTSCTFPSGDGIFWKHWIQTKDGQCGSPLVSTRDGFIVGIHSASNFTNTNNYFTSVPKNFMELLTNQEAQQWVSGWRLNADSVLWGGHKVFMVKPEEPFQPVKEATQL

Variants of: B1
Assay: raw area under fraction-flipped curve 0-4 h after induction (AUC4h, not background-subtracted), DNA-recorder readout of cleavage of the substrate (dimensionless); higher = more cleavage of the substrate by the protease variant
Conditions: temperature: 34 °C; time window: 0-4 h after rhamnose induction
Protocol: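 In vivo DNA recorder in E. coli TOP10(DE3) ΔrhaA at 34 °C. Each TEVp single-site mutant (parent TEVp 0) is paired with a single-site variant of the 7-mer TEVs (canonical ENLYFQ|S). The substrate sits between flexible linkers in a Bxb1-sfGFP-TEVs-SsrA fusion, so cleavage stabilises Bxb1 and speeds flipping of a recombination array, read by NGS. The value is the raw area under the fraction-flipped curve over 0-4 h after rhamnose induction (AUC4h), with ≥20 reads per time point. It is not background-subtracted; inactive controls average about 0.047.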
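Further: Bxb1 expression induced with 0.2% (w/v) L-rhamnose at OD600 near 0.5, cultures sampled hourly, flipped fraction per protease–substrate barcode pair counted by paired-end Illumina sequencing.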

Variant | area with substrate EALYFQS | area with substrate EELYFQS | area with substrate EGLYFQS | area with substrate EKLYFQS | area with substrate EMLYFQS | area with substrate EPLYFQS | area with substrate ESLYFQS | area with substrate EVLYFQS | area with substrate EDLYFQS | area with substrate EILYFQS
MGESLFKGPRDYNPISSSICHLTNESDGHDTSLYGIGFGPFIITNKHLFRRNNGTLVVQSLHGVFKVKDTTTLQQHLVDGRDMIIIRMPKDFPPFPQKLKFREPQREERICLVTTNFQTKSMSSMVSDTSCTFPSGDGIFWKHWIQTKDGQCGSPLVSTRDGFIVGIHSASNFTNTNNYFTSVPKNFMELLTNQEAQQWVSGWRLNADSVLWGGHKVFMVKPEEPFQPVKEATQL [T30D] | 0.103 | 0.0827 | 0.112 | 0.0988 | 0.111 | 0.12 | 0.0739 | 0.098 |  | 
MGESLFKGPRDYNPISSSICHLTNESDGHTISLYGIGFGPFIITNKHLFRRNNGTLVVQSLHGVFKVKDTTTLQQHLVDGRDMIIIRMPKDFPPFPQKLKFREPQREERICLVTTNFQTKSMSSMVSDTSCTFPSGDGIFWKHWIQTKDGQCGSPLVSTRDGFIVGIHSASNFTNTNNYFTSVPKNFMELLTNQEAQQWVSGWRLNADSVLWGGHKVFMVKPEEPFQPVKEATQL [T31I] | 0.141 | 0.138 |  | 0.0953 | 0.123 |  | 0.117 | 0.107 | 0.166 | 0.129
MGESLFKGPRDYNPISSSICHLTNESDGHTTSDYGIGFGPFIITNKHLFRRNNGTLVVQSLHGVFKVKDTTTLQQHLVDGRDMIIIRMPKDFPPFPQKLKFREPQREERICLVTTNFQTKSMSSMVSDTSCTFPSGDGIFWKHWIQTKDGQCGSPLVSTRDGFIVGIHSASNFTNTNNYFTSVPKNFMELLTNQEAQQWVSGWRLNADSVLWGGHKVFMVKPEEPFQPVKEATQL [L33D] | 0.0629 | 0.0628 | 0.0574 | 0.0875 | 0.0623 | 0.0689 | 0.0661 | 0.0663 | 0.0734 | 
MGESLFKGPRDYNPISSSICHLTNESDGHTTSLYVIGFGPFIITNKHLFRRNNGTLVVQSLHGVFKVKDTTTLQQHLVDGRDMIIIRMPKDFPPFPQKLKFREPQREERICLVTTNFQTKSMSSMVSDTSCTFPSGDGIFWKHWIQTKDGQCGSPLVSTRDGFIVGIHSASNFTNTNNYFTSVPKNFMELLTNQEAQQWVSGWRLNADSVLWGGHKVFMVKPEEPFQPVKEATQL [G35V] | 0.0384 |  |  | 0.0448 |  |  |  | 0.0572 | 0.0361 | 0.0484
MGESLFKGPRDYNPISSSICHLTNESDGHTTSLYGICFGPFIITNKHLFRRNNGTLVVQSLHGVFKVKDTTTLQQHLVDGRDMIIIRMPKDFPPFPQKLKFREPQREERICLVTTNFQTKSMSSMVSDTSCTFPSGDGIFWKHWIQTKDGQCGSPLVSTRDGFIVGIHSASNFTNTNNYFTSVPKNFMELLTNQEAQQWVSGWRLNADSVLWGGHKVFMVKPEEPFQPVKEATQL [G37C] | 0.121 | 0.124 |  | 0.138 |  |  | 0.111 |  |  | 0.0917
MGESLFKGPRDYNPISSSICHLTNESDGHTTSLYGIGFGPFIITNKHLFNRNNGTLVVQSLHGVFKVKDTTTLQQHLVDGRDMIIIRMPKDFPPFPQKLKFREPQREERICLVTTNFQTKSMSSMVSDTSCTFPSGDGIFWKHWIQTKDGQCGSPLVSTRDGFIVGIHSASNFTNTNNYFTSVPKNFMELLTNQEAQQWVSGWRLNADSVLWGGHKVFMVKPEEPFQPVKEATQL [R50N] | 0.16 |  |  |  |  |  |  |  |  | 
MGESLFKGPRDYNPISSSICHLTNESDGHTTSLYGIGFGPFIITNKHLFWRNNGTLVVQSLHGVFKVKDTTTLQQHLVDGRDMIIIRMPKDFPPFPQKLKFREPQREERICLVTTNFQTKSMSSMVSDTSCTFPSGDGIFWKHWIQTKDGQCGSPLVSTRDGFIVGIHSASNFTNTNNYFTSVPKNFMELLTNQEAQQWVSGWRLNADSVLWGGHKVFMVKPEEPFQPVKEATQL [R50W] | 0.138 | 0.145 |  |  | 0.137 | 0.155 | 0.124 | 0.161 |  | 
MGESLFKGPRDYNPISSSICHLTNESDGHTTSLYGIGFGPFIITNKHLFRRNNGTLVGQSLHGVFKVKDTTTLQQHLVDGRDMIIIRMPKDFPPFPQKLKFREPQREERICLVTTNFQTKSMSSMVSDTSCTFPSGDGIFWKHWIQTKDGQCGSPLVSTRDGFIVGIHSASNFTNTNNYFTSVPKNFMELLTNQEAQQWVSGWRLNADSVLWGGHKVFMVKPEEPFQPVKEATQL [V58G] | 0.0689 |  |  |  |  |  | 0.0585 |  | 0.0718 | 
MGESLFKGPRDYNPISSSICHLTNESDGHTTSLYGIGFGPFIITNKHLFRRNNGTLVMQSLHGVFKVKDTTTLQQHLVDGRDMIIIRMPKDFPPFPQKLKFREPQREERICLVTTNFQTKSMSSMVSDTSCTFPSGDGIFWKHWIQTKDGQCGSPLVSTRDGFIVGIHSASNFTNTNNYFTSVPKNFMELLTNQEAQQWVSGWRLNADSVLWGGHKVFMVKPEEPFQPVKEATQL [V58M] | 0.154 | 0.115 |  | 0.104 |  |  | 0.0939 | 0.0921 |  | 
MGESLFKGPRDYNPISSSICHLTNESDGHTTSLYGIGFGPFIITNKHLFRRNNGTLVVHSLHGVFKVKDTTTLQQHLVDGRDMIIIRMPKDFPPFPQKLKFREPQREERICLVTTNFQTKSMSSMVSDTSCTFPSGDGIFWKHWIQTKDGQCGSPLVSTRDGFIVGIHSASNFTNTNNYFTSVPKNFMELLTNQEAQQWVSGWRLNADSVLWGGHKVFMVKPEEPFQPVKEATQL [Q59H] | 0.113 | 0.12 | 0.102 | 0.11 |  | 0.0791 | 0.101 | 0.0798 | 0.14 | 0.0812

Same assay, conditions: temperature: 34 °C; time window: 0-4 h after rhamnose induction

Variant | area with substrate EWLYFQS | area with substrate EYLYFQS | area with substrate EHLYFQS | area with substrate ELLYFQS | area with substrate EQLYFQS | area with substrate ERLYFQS | area with substrate ETLYFQS | area with substrate EFLYFQS
MGESLFKGPRDYNPISSSICHLTNESDGHTISLYGIGFGPFIITNKHLFRRNNGTLVVQSLHGVFKVKDTTTLQQHLVDGRDMIIIRMPKDFPPFPQKLKFREPQREERICLVTTNFQTKSMSSMVSDTSCTFPSGDGIFWKHWIQTKDGQCGSPLVSTRDGFIVGIHSASNFTNTNNYFTSVPKNFMELLTNQEAQQWVSGWRLNADSVLWGGHKVFMVKPEEPFQPVKEATQL [T31I] | 0.104 | 0.108 |  |  |  |  |  | 
MGESLFKGPRDYNPISSSICHLTNESDGHTTSDYGIGFGPFIITNKHLFRRNNGTLVVQSLHGVFKVKDTTTLQQHLVDGRDMIIIRMPKDFPPFPQKLKFREPQREERICLVTTNFQTKSMSSMVSDTSCTFPSGDGIFWKHWIQTKDGQCGSPLVSTRDGFIVGIHSASNFTNTNNYFTSVPKNFMELLTNQEAQQWVSGWRLNADSVLWGGHKVFMVKPEEPFQPVKEATQL [L33D] | 0.069 |  | 0.0394 | 0.0532 | 0.0562 | 0.0665 | 0.0537 | 
MGESLFKGPRDYNPISSSICHLTNESDGHTTSLYVIGFGPFIITNKHLFRRNNGTLVVQSLHGVFKVKDTTTLQQHLVDGRDMIIIRMPKDFPPFPQKLKFREPQREERICLVTTNFQTKSMSSMVSDTSCTFPSGDGIFWKHWIQTKDGQCGSPLVSTRDGFIVGIHSASNFTNTNNYFTSVPKNFMELLTNQEAQQWVSGWRLNADSVLWGGHKVFMVKPEEPFQPVKEATQL [G35V] | 0.0632 |  | 0.0417 |  | 0.0232 | 0.0619 |  | 0.0272
MGESLFKGPRDYNPISSSICHLTNESDGHTTSLYGICFGPFIITNKHLFRRNNGTLVVQSLHGVFKVKDTTTLQQHLVDGRDMIIIRMPKDFPPFPQKLKFREPQREERICLVTTNFQTKSMSSMVSDTSCTFPSGDGIFWKHWIQTKDGQCGSPLVSTRDGFIVGIHSASNFTNTNNYFTSVPKNFMELLTNQEAQQWVSGWRLNADSVLWGGHKVFMVKPEEPFQPVKEATQL [G37C] |  |  |  |  | 0.114 |  |  | 0.0807
MGESLFKGPRDYNPISSSICHLTNESDGHTTSLYGIGFGPFIITNKHLFWRNNGTLVVQSLHGVFKVKDTTTLQQHLVDGRDMIIIRMPKDFPPFPQKLKFREPQREERICLVTTNFQTKSMSSMVSDTSCTFPSGDGIFWKHWIQTKDGQCGSPLVSTRDGFIVGIHSASNFTNTNNYFTSVPKNFMELLTNQEAQQWVSGWRLNADSVLWGGHKVFMVKPEEPFQPVKEATQL [R50W] |  |  |  |  |  | 0.131 | 0.161 | 
MGESLFKGPRDYNPISSSICHLTNESDGHTTSLYGIGFGPFIITNKHLFRRNNGTLVGQSLHGVFKVKDTTTLQQHLVDGRDMIIIRMPKDFPPFPQKLKFREPQREERICLVTTNFQTKSMSSMVSDTSCTFPSGDGIFWKHWIQTKDGQCGSPLVSTRDGFIVGIHSASNFTNTNNYFTSVPKNFMELLTNQEAQQWVSGWRLNADSVLWGGHKVFMVKPEEPFQPVKEATQL [V58G] |  |  | 0.0767 | 0.052 | 0.0841 |  |  | 
MGESLFKGPRDYNPISSSICHLTNESDGHTTSLYGIGFGPFIITNKHLFRRNNGTLVMQSLHGVFKVKDTTTLQQHLVDGRDMIIIRMPKDFPPFPQKLKFREPQREERICLVTTNFQTKSMSSMVSDTSCTFPSGDGIFWKHWIQTKDGQCGSPLVSTRDGFIVGIHSASNFTNTNNYFTSVPKNFMELLTNQEAQQWVSGWRLNADSVLWGGHKVFMVKPEEPFQPVKEATQL [V58M] | 0.0887 |  |  |  | 0.113 |  |  | 
MGESLFKGPRDYNPISSSICHLTNESDGHTTSLYGIGFGPFIITNKHLFRRNNGTLVVHSLHGVFKVKDTTTLQQHLVDGRDMIIIRMPKDFPPFPQKLKFREPQREERICLVTTNFQTKSMSSMVSDTSCTFPSGDGIFWKHWIQTKDGQCGSPLVSTRDGFIVGIHSASNFTNTNNYFTSVPKNFMELLTNQEAQQWVSGWRLNADSVLWGGHKVFMVKPEEPFQPVKEATQL [Q59H] | 0.0812 |  | 0.0987 |  | 0.136 | 0.0972 | 0.112 | 
